Results taken from PubChem BioAssay AID1345082 (National Center for Advancing Translational Sciences (NCATS), 2018).
Among all 94,000 compounds or so, about 4,000 (4.3%) were called active. Inconclusive means that the source gave no clear call. Such entries were picked first, then a sample of the others. Calls follow the shape of the dose curve; as a rule, active = well fitted inhibition curve with a large enough effect; inconclusive = small, poorly fitted or top-dose-only effect; inactive = no such curve, though single readings can be large or run the other way. Potencies beside an inconclusive call are fits to weak or partial responses and may not hold up.

Assay: Cytotoxic Profiling in NIH 3T3 Cell Line of Diverse Libraries Using Quantitative High-Throughput Screening; also: nearly all actives have a fitted effect of over 55% in size
Conditions: NIH 3T3 viability, CellTiter-Glo ATP luminescence, 48-72 h; activity change, negative = cytotoxicity: at 96.7 µM (top of the series) unless noted; series mostly up to 96.7 µM
Outline: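 Luminescent ATP readout (CellTiter-Glo, 10 min RT) after 48 or 72 hr compound exposure of NIH 3T3 cells seeded at 400 cells/well in 1536-well format; quantitative HTS.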
% is scaled to controls: 0 for no effect and ±100 for the full control effect; potency is read from the fitted curve at half-maximal effect; tags tell the direction and shape of the fitted curve.

SMILES | activity change, negative = cytotoxicity | Potency | outcome
CCOc1ccccc1C1NC(=O)N(CC(=O)Nc2ccc(C)c(C)c2)C2=C1C(=O)OC2 (stereo not drawn) | inactive: -18.4% |  | 
CC(C)CC(=O)N1CCc2ccc(S(=O)(=O)N(C)Cc3nccs3)cc2C1 |  | inconclusive: 50.1 µM [inhibitor, partial curve, poor fit] | 
COCCCNC(=O)[C@@H]1Cc2cn(Cc3cc(C)on3)c3cccc(c23)[C@H](CC(C)C)N1 |  | inconclusive: 50.1 µM [inhibitor, partial curve, poor fit] | 
O=C(NCc1nnc2cc(-c3nc(C4CC4)no3)ccn12)c1ccc(F)c(F)c1 | inactive: -8.41% |  | 
CNC(=O)c1cc(C2CC2)nc2c1c(C1CCCN(C(=O)c3ccc(OC)cc3)C1)nn2C (stereo not drawn) |  | inconclusive: 50.1 µM [inhibitor, partial curve, poor fit] | 
O=C(NCCCN1CCCCC1)C1(CCO)CC12CCOCC2 (stereo not drawn) | inactive: -16% |  | 
CC(=O)N1CCN(c2nc(-c3c(C)noc3C)cc3c2cc(-c2ccccc2)n3C)CC1 |  | inconclusive: 28.2 µM [inhibitor, full curve] | 
COc1ccc(CCc2nc3nccc(-c4ccc(OC)cc4F)n3n2)cc1 |  | inconclusive: 39.8 µM [inhibitor, partial curve] | 
Cc1ccc2nc(C(C)NC(=O)c3cnc(-c4ccccn4)[nH]c3=O)[nH]c2c1 (stereo not drawn) |  | inconclusive: 17.8 µM [inhibitor, full curve, poor fit] | 
COc1cccc(CN2CCc3c(cc(C(=O)NCc4ccccn4)n3C)C2)c1 |  | inconclusive: 70.8 µM [inhibitor, single point] | 
c1ccc([C@@H]2C[C@@H]3C[C@H](N4CCN(Cc5ccccn5)CC4)C[C@@H]3CO2)cc1 | inactive: -25.6% |  | 
CN1CC[C@H](c2nc3ccc(C(F)(F)F)cc3[nH]2)C1 |  | inconclusive: 100 µM [inhibitor, partial curve, poor fit] | 
CCn1ccnc1CN(C)C1CCCN(CCc2ccccc2)C1 (stereo not drawn) | inactive: -15.6% |  | 
CC(=O)N1CCN(Cc2ccccc2-c2ccccc2F)CC1 |  | inconclusive: 100 µM [inhibitor, partial curve, poor fit] | 
Cc1nn2c(c1-c1ccccc1[S+](C)(=O)[O-])N(C(=O)Cc1ccccc1)CCC2 |  | inconclusive: 79.4 µM [inhibitor, partial curve, poor fit] | 
COC1CN(c2cccc(F)c2)C12CCN(C(=O)NC(C)(C)C)CC2 (stereo not drawn) | inactive: -18.1% |  | 
COCC1CN(S(=O)(=O)c2ccc3c(c2)CCCC3)CC12CCNCC2 (stereo not drawn) |  | inconclusive: 44.7 µM [inhibitor, partial curve, poor fit] | 
CCC(CC)n1c(=O)n(Cc2cc(C(C)C)no2)c2cc(C(=O)O)cnc21 |  | active: 79.4 µM | 
COc1ccc(CNC(=O)CN2C(=O)NC(c3ccc(Cl)cc3)C3=C2COC3=O)cc1 (stereo not drawn) |  | inconclusive: 25.1 µM [inhibitor, partial curve] | 
COCCCNC(=O)c1nc2sccn2c1-c1cccc(C(F)(F)F)c1 | inactive: -11.4% |  | 
NC(=O)Cn1ccc2cc(OCC3CCN(C(=O)Oc4ccccc4Cl)CC3)cnc21 |  | inconclusive: 39.8 µM [inhibitor, partial curve, poor fit] | 

SMILES | activity change, negative = cytotoxicity | Potency | outcome
O=C(NCCc1ccccn1)C1c2ccccc2C(=O)N(C2CCCCC2)C12CCCCC2 (stereo not drawn) |  | inconclusive: 70.8 µM [inhibitor, single point] | 
CNC(=O)c1ccc(OC)c(-c2cc(N)nc3[nH]ccc23)c1 | inactive: 4.82% |  | 
COc1ccc(C(=O)NC2CCN(C(=O)N3CC4CC(C3)[C@H]3CCCC(=O)N3C4)CC2)c(OC)n1 (stereo partly drawn) | inactive: -4.9% |  | 
COc1ccc(CN2CCCCCNC(=O)[C@@H]3CCC[C@@H]32)cc1Cn1ccnc1 |  | inconclusive: 44.7 µM [inhibitor, partial curve, poor fit] | 
COc1ccc(CC(=O)NCc2cc(C)cc3c(C)c(C)[nH]c23)c(OC)c1 |  | inconclusive: 25.1 µM [inhibitor, full curve] | 
COc1ccc(-c2cnc3[nH]cc(CC(=O)Nc4ccc(C(F)(F)F)cc4)c3c2)cc1 |  | active: 44.7 µM | 
O=C(c1ccc(F)cc1Cl)N1CCC2(CC1)NC(=O)N(Cc1ccccc1)C2=O | inactive: -14.4% |  | 
O=C(NCC1(O)CCCNCC1)c1cccc(-c2ccc(F)cc2)c1 (stereo not drawn) |  | inconclusive: 56.2 µM [inhibitor, partial curve, poor fit] | 
CCn1ccnc1CN1CCCC(CO)(Cc2cccc(Cl)c2)C1 (stereo not drawn) |  | inconclusive: 50.1 µM [inhibitor, partial curve, poor fit] | 
CN1CCN(CCNC(=O)c2ccc3c(c2)N(S(=O)(=O)c2ccccc2F)CC3)CC1 |  | inconclusive: 50.1 µM [inhibitor, partial curve, poor fit] | 
COc1ccc2c3c1CN(S(C)(=O)=O)CC3=CC(C)(C)CO2 |  | inconclusive: 50.1 µM [inhibitor, partial curve, poor fit] | 
O=C(C[C@@H]1CCNC[C@@H]1Cc1cc(COc2ccccc2)on1)N1CCC(Cc2ccccc2)CC1 |  | active: 28.2 µM | 
CCCC1CN(Cc2ccc(OC)cc2)[S+](=O)([O-])c2cnccc2O1 (stereo not drawn) |  | inconclusive: 39.8 µM [inhibitor, partial curve, poor fit] | 
Cc1noc(C)c1CC(=O)N1CCC2(CC1)CN([S+](C)(=O)[O-])Cc1ccccc1O2 | inactive: -9.59% |  | 
CC(=O)N1CCCC(c2nnc3n2CCNC3)C1 (stereo not drawn) |  |  | inactive
Cc1ccc(-c2noc(CNC(N)=O)n2)nn1 | inactive: -3.67% |  | 
CC(Oc1ccccc1)C(=O)N1CC(Oc2cccc(-c3nc(-c4ccccc4)no3)c2)C1 (stereo not drawn) |  | active: 28.2 µM | 
O=C1Nc2ccc(-c3ccc(Cl)cc3)cc2C(=O)N2CCN(C(=O)c3ccccc3)C[C@H]12 |  | inconclusive: 56.2 µM [inhibitor, partial curve, poor fit] | 
Cc1nc(C(F)(F)F)nc(N2CCOC(c3ccc(F)cc3)C2)c1C (stereo not drawn) |  | inconclusive: 44.7 µM [inhibitor, partial curve, poor fit] | 
CCc1ccccc1NC(=O)Cn1c(N(C)Cc2ccccc2)nc(C)cc1=O |  | inconclusive: 70.8 µM [inhibitor, single point] | 
C=CCN(C)C(=O)[C@@H]1Cc2c[nH]c3cccc(c23)[C@H](CC(C)C)N1 |  | inconclusive: 79.4 µM [inhibitor, partial curve, poor fit] | 

SMILES | activity change, negative = cytotoxicity | Potency | outcome
COC(=O)c1ccc2c(c1)nc1n2[C@@H](CNC(=O)c2ccc(Cl)cc2)COC1 |  | inconclusive: 79.4 µM [inhibitor, partial curve] | 
O=C(COc1ccc(F)cc1)N1CCC2(CC1)NCCc1c2[nH]c2ccccc12 |  | inconclusive: 50.1 µM [inhibitor, partial curve, poor fit] | 
COc1cccc(CN2CCC(Cc3ncc(C)n3CC3CC3)C2)c1OC (stereo not drawn) |  | inconclusive: 28.2 µM [inhibitor, full curve] | 
Cc1noc(C)c1CCC(=O)NC1CCCc2c1[nH]c1ccccc21 (stereo not drawn) |  | inconclusive: 50.1 µM [inhibitor, partial curve, poor fit] | 
O=C(Cc1ccc(Cl)cc1)N1CCC2(CC1)NC(=O)N(c1ccccc1Cl)N2 |  | active: 39.8 µM | 
O=C(c1ccc2c(c1)OCO2)N1[C@@H](c2ccccc2)[C@@H](CO)C[C@]12CCCCNC2=O |  | inconclusive: 79.4 µM [inhibitor, partial curve, poor fit] | 
COC[C@H]1CCCN1Cc1nc(C2(O)CCN(Cc3ccc(C(F)(F)F)cc3)CC2)cs1 |  | inconclusive: 56.2 µM [inhibitor, partial curve, poor fit] | 
Cn1ncc2c(C(=O)NCCCc3ccccc3)cc(-c3ccccc3C(F)(F)F)nc21 |  | inconclusive: 22.4 µM [inhibitor, full curve] | 
COc1ccc(C)cc1NC(=O)N1c2ccccc2CC1c1nc(C2CC2)no1 (stereo not drawn) |  | inconclusive: 44.7 µM [inhibitor, partial curve, poor fit] | 
Cn1cc(CN2C[C@H](C(=O)Nc3ccc(F)cc3)C[C@@H]2c2cccc(C(F)(F)F)c2)cn1 |  | inconclusive: 50.1 µM [inhibitor, partial curve, poor fit] | 
Cc1ccc(C(=O)N2CCC(N3C(=O)C4(CCCCC4)C3c3ccncc3)CC2)cc1 (stereo not drawn) |  | inconclusive: 44.7 µM [inhibitor, partial curve, poor fit] | 
CCOC(=O)N1CCC(N2CCc3nc(-c4ccc(Cl)cc4)[nH]c3C2)C1 (stereo not drawn) |  | inconclusive: 79.4 µM [inhibitor, partial curve, poor fit] | 
O=C(NCc1ccnc2[nH]ccc12)c1ccc2ccccc2n1 |  | inconclusive: 35.5 µM [inhibitor, partial curve] | 
Cc1cc(C)c(CNC(=O)c2nc(-c3ccccc3C)cc3c2ccn3C(C)C)c(=O)[nH]1 |  | active: 28.2 µM | 
CCn1nc(C)c(-c2cc(C(=O)NCCc3noc(-c4ccccc4)n3)no2)c1C |  | inconclusive: 44.7 µM [inhibitor, partial curve, poor fit] | 
Cc1ccc2nc(NC(=O)C3CC(=O)N(c4n[nH]c5cccc(F)c45)C3)sc2c1 (stereo not drawn) |  | active: 31.6 µM | 
Cc1ccc(CNc2ccc3nnc(C(C)C)n3n2)o1 |  | inconclusive: 44.7 µM [inhibitor, partial curve, poor fit] | 
Cc1cnc(CCNS(=O)(=O)c2cccc(F)c2)n1C(C)C |  |  | inactive
O=C(c1ccccn1)N1CCN(c2ccc3nnc(C4CC4)n3n2)CC1 | inactive: -32.9% [at 138 µM] |  | 
Cc1ccc(CN2CCN(C(=O)C3(Cc4cccnc4)CCCCC(=O)N3)CC2)cc1 (stereo not drawn) | inactive: -13.7% |  | 
CC1CCN(CC2CCCN(C(=O)Nc3ccccc3F)CC2)CC1 (stereo not drawn) |  | inconclusive: 31.6 µM [inhibitor, partial curve, poor fit] | 
